These are literature values, as cited in PMC8865417, “Receptor Interaction Profiles of 4-Alkoxy-3,5-Dimethoxy-Phenethylamines (Mescaline Derivatives) and Related Amphetamines” (Frontiers in Pharmacology, 2022).

SMILES strings stand for the structures.

In data set [1] the target is human 5-HT2A receptor (Homo sapiens, UniProt P28223). Also noted: expressed in transfected cells; host or cells: NIH-3T3 cells (mouse embryonic fibroblasts). Particulars: reference substances, ref Luethi et al. (2018b), cited from earlier work.
Data set [2] has as its target human 5-HT2B receptor (Homo sapiens, UniProt P41595). Also noted: expressed in transfected cells; host or cells: HEK 293 cells. Particulars: reference substances, ref Luethi et al. (2018b), cited from earlier work.
Data set [3] deals with T1, h5-HT1A receptor (Homo sapiens, UniProt P08908).
T1 construct: expressed in transfected cells; host or cells: HEK 293 cells (membrane preparations)
Particulars: [3H]8-OH-DPAT; reference substances; ref Luethi et al. (2018b); read-out: h5-HT1A Receptor binding Ki ± SD; cited from earlier work.

UniProt P28223, sequence (P28223 whole entry): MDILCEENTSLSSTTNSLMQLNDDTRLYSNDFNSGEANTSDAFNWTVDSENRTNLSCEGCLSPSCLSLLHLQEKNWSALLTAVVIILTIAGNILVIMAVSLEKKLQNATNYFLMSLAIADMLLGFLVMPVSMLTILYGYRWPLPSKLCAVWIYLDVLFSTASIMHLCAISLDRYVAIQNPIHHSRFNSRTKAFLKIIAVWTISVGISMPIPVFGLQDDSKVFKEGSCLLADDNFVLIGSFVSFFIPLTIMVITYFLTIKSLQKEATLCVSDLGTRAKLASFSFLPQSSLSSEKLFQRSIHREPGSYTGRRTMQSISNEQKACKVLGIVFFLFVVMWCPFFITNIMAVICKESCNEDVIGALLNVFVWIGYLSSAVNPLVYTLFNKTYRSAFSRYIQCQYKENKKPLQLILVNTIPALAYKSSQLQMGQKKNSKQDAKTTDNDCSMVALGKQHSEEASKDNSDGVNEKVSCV
UniProt P41595, sequence (P41595 whole entry): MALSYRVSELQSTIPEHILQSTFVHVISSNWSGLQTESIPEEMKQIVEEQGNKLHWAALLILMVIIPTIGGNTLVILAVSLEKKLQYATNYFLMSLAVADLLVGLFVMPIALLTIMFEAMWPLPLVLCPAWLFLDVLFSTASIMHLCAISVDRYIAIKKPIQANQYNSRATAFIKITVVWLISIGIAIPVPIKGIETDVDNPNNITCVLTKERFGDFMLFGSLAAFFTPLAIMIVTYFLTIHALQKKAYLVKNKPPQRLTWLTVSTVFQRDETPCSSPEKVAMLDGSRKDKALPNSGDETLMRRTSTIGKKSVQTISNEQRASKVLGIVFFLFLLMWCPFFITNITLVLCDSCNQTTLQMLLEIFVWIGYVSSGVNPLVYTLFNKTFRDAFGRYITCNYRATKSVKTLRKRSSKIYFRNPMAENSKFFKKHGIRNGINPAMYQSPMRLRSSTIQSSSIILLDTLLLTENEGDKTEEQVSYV
T1 sequence (P08908 whole entry): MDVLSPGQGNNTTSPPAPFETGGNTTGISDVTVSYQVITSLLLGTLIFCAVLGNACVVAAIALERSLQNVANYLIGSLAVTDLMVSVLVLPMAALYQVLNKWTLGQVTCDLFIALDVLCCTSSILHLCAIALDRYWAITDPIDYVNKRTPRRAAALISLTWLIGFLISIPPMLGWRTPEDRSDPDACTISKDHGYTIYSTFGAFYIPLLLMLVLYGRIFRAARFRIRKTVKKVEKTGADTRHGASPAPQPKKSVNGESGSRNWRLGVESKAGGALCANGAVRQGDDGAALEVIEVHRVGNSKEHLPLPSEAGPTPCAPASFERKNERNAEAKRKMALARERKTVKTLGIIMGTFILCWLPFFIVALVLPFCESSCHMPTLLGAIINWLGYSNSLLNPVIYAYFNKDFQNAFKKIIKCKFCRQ

Take `CCN(CC)C(=O)[C@@H]1C=C2c3cccc4[nH]cc(c34)C[C@H]2N(C)C1` [compound 3, lysergic acid diethylamide]: the “h5-HT2A Activation efficacy max ± SD” value in data set [1] was 73 ± 2%.

In the case of `COc1cc(CCN)c(OC)cc1Br` [2C-B], in data set [2], the “h5-HT2B Activation efficacy max ± SD” value was 52 ± 26%. In addition, the EC50 in data set [2] (read-out: h5-HT2B Activation potency EC50 ± SD) is 75 ± 14 nM; in data set [1] (read-out: h5-HT2A Activation potency EC50 ± SD), 2.1 ± 0.8 nM. Besides, in data set [1], the “h5-HT2A Activation efficacy max ± SD” value was 92 ± 8%. In addition, in data set [3], the Ki is 311 ± 46 nM.

What is called EC50 is the concentration needed to bring the measured effect to its halfway point. What is called Ki is the equilibrium dissociation constant of an inhibitor or competing ligand from its target.
